Experimental data taken from the antibiotic and cytotoxicity screens of Wong et al. (2023).
This is one part of the list.

Tested on: S. aureus RN4220
Experiment: growth inhibition call (relative growth <= 0.2)
Settings: 50 µM

Growth inhibition call, inactive:
Cc1ccc(S(=O)(=O)N(C)C[C@@H]2OCCCC[C@@H](C)Oc3ccc(NC(=O)Nc4ccccc4)cc3C(=O)N([C@@H](C)CO)C[C@@H]2C)cc1
C[C@H](CO)N1C[C@H](C)[C@@H](CN(C)C(=O)Nc2ccccc2)Oc2ccc(NS(C)(=O)=O)cc2C1=O
CC(C)NC(=O)N(C)C[C@H]1Oc2cc(C#Cc3ccccn3)ccc2S(=O)(=O)N([C@H](C)CO)C[C@@H]1C
COc1ccc(NC(=O)N(C)C[C@H]2Oc3c(NC(=O)Nc4ccc(C(F)(F)F)cc4)cccc3C(=O)N([C@@H](C)CO)C[C@@H]2C)cc1
C[C@H]1CN([C@@H](C)CO)C(=O)c2cc(NC(=O)CCN3CCOCC3)ccc2O[C@H]1CN(C)Cc1ccncc1
C[C@@H]1CN([C@H](C)CO)S(=O)(=O)c2ccc(C#Cc3cccc(F)c3)cc2O[C@@H]1CN(C)S(=O)(=O)c1cn(C)cn1
C[C@@H]1CN([C@H](C)CO)C(=O)CCCn2cc(nn2)CO[C@@H]1CN(C)S(=O)(=O)c1ccc2ccccc2c1
C[C@H]1CN([C@@H](C)CO)C(=O)c2c(c3ccccc3n2C)-c2ccccc2CO[C@@H]1CN(C)C(=O)Nc1cccc(C(F)(F)F)c1
O=C(C[C@H]1CC[C@@H]2[C@H](COC[C@H](O)CN2C(=O)Nc2ccc3c(c2)OCO3)O1)N1CCN(c2ccccc2)CC1
O=C(NC1CCCCC1)N(CCCl)[NH2+][O-]
C[C@H]1O[C@@H](O[C@H]2[C@@H](O)C[C@H](O[C@H]3[C@@H](O)C[C@H](O[C@H]4CC[C@@]5(C)[C@H](CC[C@@H]6[C@@H]5CC[C@]5(C)[C@@H](C7=CC(=O)OC7)CC[C@]65O)C4)O[C@@H]3C)O[C@@H]2C)C[C@H](O)[C@@H]1O
